In the supplement of paper PMC12217912:
The list shows a part of the results. Sequences were assembled here from the parent chain. Inactive controls read about 0.05.

B1: TEV protease; numbered along this chain (parent)
chain: MGESLFKGPRDYNPISSSICHLTNESDGHTTSLYGIGFGPFIITNKHLFRRNNGTLVVQSLHGVFKVKDTTTLQQHLVDGRDMIIIRMPKDFPPFPQKLKFREPQREERICLVTTNFQTKSMSSMVSDTSCTFPSGDGIFWKHWIQTKDGQCGSPLVSTRDGFIVGIHSASNFTNTNNYFTSVPKNFMELLTNQEAQQWVSGWRLNADSVLWGGHKVFMVKPEEPFQPVKEATQL

Variants of: B1
Experiment: raw area under fraction-flipped curve 0-4 h after induction (AUC4h, not background-subtracted), DNA-recorder readout of cleavage of the substrate (dimensionless); higher = more cleavage of the substrate by the protease variant
Conditions: temperature: 34 °C; time window: 0-4 h after rhamnose induction
Protocol: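 In vivo DNA recorder in E. coli TOP10(DE3) ΔrhaA at 34 °C. Each TEVp single-site mutant (parent TEVp 0) is paired with a single-site variant of the 7-mer TEVs (canonical ENLYFQ|S). The substrate sits between flexible linkers in a Bxb1-sfGFP-TEVs-SsrA fusion, so cleavage stabilises Bxb1 and speeds flipping of a recombination array, read by NGS. The value is the raw area under the fraction-flipped curve over 0-4 h after rhamnose induction (AUC4h), with ≥20 reads per time point. It is not background-subtracted; inactive controls average about 0.047.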
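Further: Bxb1 expression induced with 0.2% (w/v) L-rhamnose at OD600 near 0.5, cultures sampled hourly, flipped fraction per protease–substrate barcode pair counted by paired-end Illumina sequencing.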

Variant	area with substrate ANLYFQS	area with substrate CNLYFQS	area with substrate HNLYFQS	area with substrate INLYFQS	area with substrate KNLYFQS	area with substrate LNLYFQS	area with substrate MNLYFQS	area with substrate PNLYFQS	area with substrate RNLYFQS	area with substrate SNLYFQS	area with substrate TNLYFQS	area with substrate WNLYFQS	area with substrate GNLYFQS	area with substrate DNLYFQS	area with substrate FNLYFQS	area with substrate NNLYFQS	area with substrate QNLYFQS	area with substrate YNLYFQS	area with substrate VNLYFQS
I84C	0.0524	0.0592	0.0521	0.0642	0.0582	0.0739	0.0695	0.0763	0.0621	0.0625	0.0913	0.0557	–	–	–	–	–	–	–
I85D	0.0409	0.0678	–	0.0386	–	–	0.0576	0.0444	0.0229	0.0438	0.0525	0.0401	0.0564	–	–	–	–	–	–
I85M	0.0978	–	–	–	–	–	0.0722	0.0616	–	0.0731	–	0.052	0.0676	0.0654	0.0283	0.0664	0.0755	0.0519	–
I85V	0.0709	0.066	0.0602	0.0858	0.0685	0.0617	–	0.0599	0.0659	0.0781	–	0.0504	0.0786	–	0.0563	0.0723	–	0.064	0.0513
I86E	0.0367	0.0352	0.0301	0.0288	0.0564	0.031	0.0227	–	–	–	–	–	0.0438	–	0.0274	0.04	–	0.0229	–
I86K	0.0248	0.0144	0.0293	–	–	–	0.0408	–	0.028	0.037	0.0368	–	–	–	–	–	–	0.0419	–
K90L	0.0629	0.088	0.0572	–	0.0655	0.0723	0.0702	0.0772	–	0.0632	0.0752	0.0616	–	–	0.0677	–	–	–	0.0568
F92A	0.0879	0.0617	0.0778	–	0.0711	–	0.0676	0.0696	–	0.0611	0.0464	0.0653	0.0771	–	0.0585	–	–	0.0709	–
F95G	0.0537	–	0.0576	–	0.0427	0.0581	0.0507	–	0.0571	0.0415	0.0472	0.0692	0.0207	0.0576	–	0.0562	–	–	–
F95V	0.04	0.0597	0.0417	0.0308	0.0445	0.0603	–	0.0513	–	–	0.0583	0.0542	–	–	–	–	–	–	–
F95W	0.0763	0.0649	0.0588	–	0.0975	0.0589	0.0527	–	–	0.0648	0.0895	0.0722	–	–	0.0622	–	–	0.0522	–
Q97I	0.0416	0.0437	–	0.0466	–	–	–	–	0.0755	–	0.0542	0.0652	0.0604	–	–	–	–	0.0641	0.0468
Q97S	0.0663	0.0692	0.0488	–	–	–	–	0.0763	–	–	0.0672	0.057	0.06	–	–	–	–	–	–
K98E	0.0779	0.0873	–	0.0549	–	0.0612	–	–	–	0.056	–	–	0.071	–	0.0454	–	0.0512	–	–
K100S	0.0747	–	0.0747	0.0622	0.0567	0.0737	–	–	–	–	0.0685	–	0.104	0.0678	0.0644	–	–	0.0644	0.0574
R102D	0.0088	0.0475	0.0405	0.0493	0.0454	0.0423	–	–	–	–	0.0381	0.049	–	–	–	–	–	0.0521	0.0584
R102Q	0.0402	–	0.0514	–	–	–	–	–	–	0.0495	0.0317	0.0498	0.0375	0.0448	0.0408	0.0509	–	0.023	–
R102W	0.0444	0.0432	0.0492	–	0.0525	0.0252	–	–	–	0.0529	0.0533	0.046	0.0551	–	–	0.0483	0.0394	–	–
E103W	0.0569	0.0525	0.0671	–	0.0648	0.0399	0.0505	0.0535	0.104	0.0595	0.0632	0.0521	0.0646	–	0.0585	0.053	–	–	0.0576
Q105A	0.066	0.0722	0.0074	–	–	0.0738	0.0646	–	–	0.0691	0.0912	0.0615	0.0755	–	0.0629	0.0626	–	–	–
Q105G	0.0644	0.0642	0.0582	0.0609	–	0.065	0.0611	0.0606	–	0.0658	0.0539	0.0489	0.0543	–	0.0721	0.071	0.0682	0.0618	0.0746
R106H	0.0663	0.0743	0.0289	0.0614	0.0634	0.0427	0.0494	0.0744	–	–	0.0608	0.0634	0.0624	–	0.0677	0.0595	–	–	–
R106W	0.0733	0.0678	0.056	0.0641	0.0672	0.0719	0.0648	0.0713	–	0.0921	0.0653	0.0715	0.0559	–	0.0665	0.075	0.0951	0.0543	0.0681
E107K	0.0843	0.0687	0.074	0.052	0.0644	0.0736	0.0691	0.0792	–	–	0.0839	0.0722	0.0673	–	0.0492	0.0837	–	0.0608	–
E107M	0.0371	–	0.055	–	0.0623	0.076	0.0625	–	–	0.0705	0.0747	0.0534	–	0.0797	0.0555	–	–	–	–
E107N	0.0645	–	0.0548	0.0548	–	–	–	0.0649	–	0.0773	0.0641	0.0638	0.0865	0.0708	0.0595	–	–	0.0585	–
E107S	0.0551	–	0.0604	–	0.0642	–	0.0629	0.0554	–	0.075	0.0597	0.059	–	0.0822	0.0681	0.0652	–	0.0596	0.0706
E108I	0.0584	0.0515	0.061	0.0631	0.0872	0.0509	0.0537	0.0509	–	0.0485	0.0582	0.0515	0.0509	–	–	–	–	0.048	–
E108S	0.0455	0.0457	0.0546	–	–	0.0489	0.0483	–	–	–	–	–	–	–	–	0.0579	–	–	–
E108V	0.0586	0.0711	0.0573	0.0492	0.0532	0.0606	–	0.0587	–	0.0569	0.0538	0.0547	0.0497	–	0.0611	0.0604	–	0.0554	–
